SMILES strings stand for the structures. The campaign covered roughly 310,000 compounds. About 2,200 (0.71%) showed an effect of 50% or more. The effect is printed as a negative number. The list shows a part of the results.

In this experiment the target is human ether-à-go-go-related gene (hERG) potassium channel (human, UniProt Q12809). As to the kind of experiment: primary screen, population patch clamp on CHO cells stably expressing hERG.
Sequence of human ether-à-go-go-related gene (hERG) potassium channel (Q12809 whole entry, looked up): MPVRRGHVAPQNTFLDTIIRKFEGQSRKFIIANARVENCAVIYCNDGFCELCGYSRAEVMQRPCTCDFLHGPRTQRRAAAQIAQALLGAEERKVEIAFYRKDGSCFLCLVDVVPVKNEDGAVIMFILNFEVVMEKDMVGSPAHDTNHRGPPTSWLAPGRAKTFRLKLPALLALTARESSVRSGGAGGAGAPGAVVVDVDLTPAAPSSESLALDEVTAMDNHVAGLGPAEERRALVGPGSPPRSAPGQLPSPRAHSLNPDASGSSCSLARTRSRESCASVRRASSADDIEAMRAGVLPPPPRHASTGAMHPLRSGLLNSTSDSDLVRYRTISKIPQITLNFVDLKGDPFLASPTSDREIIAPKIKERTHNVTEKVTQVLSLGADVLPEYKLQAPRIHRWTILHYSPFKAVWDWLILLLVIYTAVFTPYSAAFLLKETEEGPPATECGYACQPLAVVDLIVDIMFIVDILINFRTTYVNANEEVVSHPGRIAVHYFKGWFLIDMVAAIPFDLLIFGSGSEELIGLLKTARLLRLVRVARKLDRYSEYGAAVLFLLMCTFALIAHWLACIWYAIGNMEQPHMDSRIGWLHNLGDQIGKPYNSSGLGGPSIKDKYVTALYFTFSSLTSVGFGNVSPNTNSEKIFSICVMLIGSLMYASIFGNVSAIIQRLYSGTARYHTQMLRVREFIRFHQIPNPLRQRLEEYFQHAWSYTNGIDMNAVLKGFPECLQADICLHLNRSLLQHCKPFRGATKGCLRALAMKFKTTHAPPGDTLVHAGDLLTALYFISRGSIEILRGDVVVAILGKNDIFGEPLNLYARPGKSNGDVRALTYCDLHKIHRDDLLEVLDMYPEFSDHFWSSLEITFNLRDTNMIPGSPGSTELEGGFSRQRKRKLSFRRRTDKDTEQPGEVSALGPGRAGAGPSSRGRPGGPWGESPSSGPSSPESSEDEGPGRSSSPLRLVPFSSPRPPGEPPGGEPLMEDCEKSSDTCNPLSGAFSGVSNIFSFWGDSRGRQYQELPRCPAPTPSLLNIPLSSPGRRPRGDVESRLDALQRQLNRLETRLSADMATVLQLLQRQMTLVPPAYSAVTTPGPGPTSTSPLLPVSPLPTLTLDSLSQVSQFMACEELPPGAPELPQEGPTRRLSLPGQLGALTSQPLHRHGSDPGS
Take `O=C(O)c1ccc(N=C2NC(=O)C(CO)(CO)S2)cc1`: the “hERG current change (%, negative = inhibition) at 1uM” value was 20.4%. On to `CSc1ccc(CCNS(=O)(=O)c2csc(C(N)=O)c2)cc1`, for which the “hERG current change (%, negative = inhibition) at 1uM” value is 1.03%.

For the molecule `O=C(NC(=S)Nn1cnnc1)c1ccccc1Br`, the “hERG current change (%, negative = inhibition) at 1uM” value is reported as 0.675%. Under `Cn1c(SCC(=O)NC(c2ccccc2)c2ccccc2)nnc1-c1cccs1` stands 6.81%; under `Cc1nc2c(C(=O)NCCc3ccccc3)c[nH]n2c(=O)c1Cl`, 2.64%. Under `CCOC(=O)c1ccc(Nc2nnc3nc(C)cc(C)n23)cc1` stands 15.7%; under `CC(Sc1nncn1C)C(=O)Nc1ccccc1-c1ccccc1` (stereo not shown), 16.7%; under `CCOC(=O)c1c(-c2ccco2)csc1NC(=O)COC(=O)c1cnc(C)cn1`, 6.69%. For `O=C(c1ccc(S(=O)(=O)c2ccccc2)cc1)N1CCCCCC1`, the “hERG current change (%, negative = inhibition) at 1uM” value is on record as 1.02%. Under `CCc1ccc(C(=O)N2CCN(c3ccc(F)cc3)CC2)s1` stands 0.316%; under `[O-][n+]1c2ccc3nonc3c2nn1-c1ccccc1Cl`, 13.1%. Turning to `C=CCNC(=O)CN(c1ccc(OC)cc1OC)S(C)(=O)=O`, the “hERG current change (%, negative = inhibition) at 1uM” value is recorded as 15.2%. Under `Cc1cc(=O)n2nc(N3CCC(C(=O)NCc4ccc(Cl)cc4)CC3)sc2n1` stands -23.3%; under `O=C(O)CC/C(=N\NC(=O)c1ccccc1Br)c1ccccc1`, 19%. Under `COc1ccccc1NC(=O)c1c(C)cc(=O)oc1C` stands 8.99%; under `CC(C)CC(NC(=O)CNC(=O)C1O[C@@H]2OC(C)(C)O[C@@H]2[C@H]2OC(C)(C)O[C@@H]12)C(=O)O` (stereo partly shown), 15.7%. For `O=C(NC(C(=O)c1ccccc1)N1CCOCC1)c1ccccc1` (stereo not shown), the “hERG current change (%, negative = inhibition) at 1uM” value worked out at 9.98%.

As for `Cc1ccc(S(=O)(=O)NNC(=O)Nc2ccc([N+](=O)[O-])cc2)c(C)c1`, the “hERG current change (%, negative = inhibition) at 1uM” value turned out to be 4.33%. Then `CCOC(=O)c1[nH]c2ccccc2c1NC(=O)C(CC)CC`, with 13%. For `Cc1ccc(-c2nn(-c3ccccc3)cc2C(=O)O)o1`, the “hERG current change (%, negative = inhibition) at 1uM” value is 19.2%. Then `NCCCNc1nc(N)c([N+](=O)[O-])c(NC2CCCCC2)n1`, with 5.5%; and `COc1cc(C2NC(=O)C(C#N)=C(S)N2c2ccccc2)ccc1OC(C)C` (stereo not shown), with 16.2%. Then `COc1ccc(OC)c(N2CC(O)(c3ccccc3)[N+]3=C2SCCC3)c1.[Br-]` (stereo not shown), with -24.6%; and `O=C(CSCc1ccc(F)cc1)NC1CCCC1`, with 5.03%. Under `O=C1CCC(C(=O)OCc2nnc(-c3ccc(Cl)cc3)o2)=NN1` stands 15.1%; under `CCOC(=O)N1CCN(S(=O)(=O)c2ccc(OCC(=O)OC)cc2)CC1`, 13.7%. As to `Cc1cccc(C)c1NC(=O)CN(C)C(=O)c1ccccc1Cc1ccccc1`, the “hERG current change (%, negative = inhibition) at 1uM” value is given as 4.35%. Under `O=C(CCCC(=O)N1CCN(c2cccc(Cl)c2)CC1)c1ccccc1` stands 1.83%; under `CC(C)C(=O)Nc1nnc(SCC(=O)NCc2ccc3c(c2)OCO3)s1`, 11.7%; under `Cn1c(=O)cc(SCC(=O)NCCC2=CCCCC2)c2cc(Cl)ccc21`, 2.05%.

With `COc1cc(Cl)c(C)cc1NC(=O)CSc1nc2ccccc2o1`, the “hERG current change (%, negative = inhibition) at 1uM” value was 18%. Then `c1ccc(-c2nn[nH]n2)nc1`, with 12.5%; and `Cc1ccc(NC(=O)CCCC2CCCCC2)c(O)c1`, with 4.31%. With `CCC1CCCCN1C(=O)C1CC(c2cc(Cl)c(OC)cc2OC)=NO1` (stereo not shown), the “hERG current change (%, negative = inhibition) at 1uM” value was found to be 15.8%. On to `COc1ccc(OC)c2sc(N3CCN(C(=O)c4ccc5ncsc5c4)CC3)nc12`, for which the “hERG current change (%, negative = inhibition) at 1uM” value was found to be 5.07%. Under `COc1cc(C2C3=C(CC(C)(C)CC3=O)OC3=C2C(=O)CC(C)(C)C3)cc([N+](=O)[O-])c1O` stands 7.64%. Under `CN(C)CCCNC(=O)c1ccc2[nH]c3ccccc3c2c1` stands -3.67%. Under `COc1ccc(Br)cc1C1SCCN1S(C)(=O)=O` (stereo not shown) stands 6.03%; under `O=C(COC(=O)COc1ccccc1)NCCc1ccccc1`, 8.55%; under `Cc1occc1C(=O)Nc1cccc2ccccc12`, 10.8%. With `O=C(COC(=O)CNC(=O)c1ccccc1)NCCNC(=O)COC(=O)CNC(=O)c1ccccc1`, the “hERG current change (%, negative = inhibition) at 1uM” value is 7.34%. Under `COc1ccc(C(=O)OCC(=O)N(C)C2CCS(=O)(=O)C2)cc1S(=O)(=O)N(C)Cc1ccccc1` (stereo not shown) stands 10.1%; under `O=C(Nn1cnc2ccccc2c1=O)c1ccccc1Cl`, 12.8%. Then `COC(=O)Nc1ccc(S(=O)(=O)Nc2cc(C(F)(F)F)c[nH]c2=O)cc1`, with 17.3%. Then `O=C(CSc1nnc(NC(=O)c2ccco2)s1)NC1CCCC1`, with 18.8%; and `CCOC(=O)Cn1c(S(=O)(=O)Cc2ccc(F)cc2)nc(-c2ccccc2)c1-c1ccccc1`, with 3.66%. Turning to `CCOC(=O)N1CCN(CC(=O)Nc2ccc([N+](=O)[O-])cc2C(=O)Nc2ccccc2F)CC1`, the “hERG current change (%, negative = inhibition) at 1uM” value is on record as -5.13%. Under `Cc1c(C(=O)O)sc2nc3n(c(=O)c12)CCC(C)CC3` (stereo not shown) stands 7.56%; under `Cc1ccc(C(=O)N2CCN(S(=O)(=O)N3CCCCCC3)CC2)cc1`, 9.4%; under `COC(=O)CC1=C(C(=O)OC)C(c2cc(OC)c(OC)cc2OC)C(C#N)=C(N)O1` (stereo not shown), -6.5%.

As to `O=C(NNC(=O)c1ccc(NC(=O)c2ccccc2)cc1)c1ccc(F)cc1`, the “hERG current change (%, negative = inhibition) at 1uM” value amounted to 18%. Under `OCCC1CN(Cc2cccc(O)c2)CCN1CCc1ccccc1` (stereo not shown) stands -5.31%; under `CCN(c1ccccc1)C1(O)C(=O)c2ccccc2C1=O`, 22.7%; under `COc1ccccc1OCc1ccc(C(=O)NCc2ccco2)o1`, 11.5%. Then `Cc1nnc(SCC(=O)Nc2ccc3c(c2)OCCO3)n1N`, with 14.8%; and `COc1ccccc1CNC(=O)C1(NC(=O)Nc2ccc(C)cc2)CCCCC1`, with 27.6%.

On to `Cc1cccnc1NC(=O)CSc1nnc(CNC(=O)c2cccc([N+](=O)[O-])c2)n1C`, for which the “hERG current change (%, negative = inhibition) at 1uM” value was 12.8%. Under `N=C1C2=C3Sc4ccccc4N3CCCC2=NN1c1cccc(S(=O)(=O)O)c1` stands 16.7%. Turning to `C/C(=N\NC(=O)CSCc1cccc(Br)c1)c1ccc([N+](=O)[O-])cc1`, the “hERG current change (%, negative = inhibition) at 1uM” value stood at 4.58%.

As for `CCn1c(SCC(=O)Nc2nnc(C)s2)nnc1C(C)NC(=O)c1ccccc1F` (stereo not shown), the “hERG current change (%, negative = inhibition) at 1uM” value is on record as 14.2%. Then `CC(C)(C)Oc1ncc(Br)c(OC(C)(C)C)n1`, with 4.83%; and `O=C1C2CCCCC2C(=O)N1c1nccs1` (stereo not shown), with 5.43%.

As for `COc1ccccc1/C=N/Nc1nc(C)cc(C)n1`, the “hERG current change (%, negative = inhibition) at 1uM” value was 8%. Under `COc1ccc(C(=O)N=c2nc3ccccn3s2)cc1` stands 11.6%. Under `Cn1c(SCC(=O)NCC2CCCO2)nnc1-c1c[nH]c2ccccc12` (stereo not shown) stands -5.97%; under `COC(=O)c1ccc(NC(=O)c2ccc3c(c2)OCO3)cc1`, 1.59%; under `Cc1cccc(-c2c3c(=O)n(C)c(=O)n(C)c3cn2CC2CCCO2)c1` (stereo not shown), 7.56%. Then `CC(C)=CC(=O)Nc1ccc(Br)cc1`, with 14.7%; and `Cn1c(-c2sc3ccccc3c2Cl)n[nH]c1=S`, with 17.3%; and `CCCc1nnc(NC(=O)CCC(=O)NCc2ccc(OC)cc2)s1`, with 12.9%. In the case of `CCCc1cc(N2CCCC2)n2nc(C)c(-c3ccccc3)c2n1`, the “hERG current change (%, negative = inhibition) at 1uM” value was found to be 17.5%. Then `Cc1ccc(NC(=O)c2cnccn2)cc1C`, with 15.4%; and `Oc1ccc2ccccc2c1C=NCc1ccccc1`, with 11.2%; and `CCCCCC(=O)N1CC2(CC(c3cccc(NC(=O)CC(c4ccccc4)c4ccccc4)c3)=NO2)C[C@@H]1C(N)=O` (stereo partly shown), with 14.4%. Under `Cc1cnc2c(c1)C(=O)c1ccccc1-2` stands 14.2%; under `CC(=O)C1=C(C)NC2(O)c3ccccc3C(=O)C12O` (stereo not shown), -24.5%; under `O=C(C1CC1)N1CCN(Cc2ccccc2)CC1`, 2.72%.

In the case of `COc1ccc(OC(=O)NCCc2ccccc2)cc1`, the “hERG current change (%, negative = inhibition) at 1uM” value stood at 12.2%. Under `CCC1CCCCN1C(=O)CN1C(=O)c2ccccc2S1(=O)=O` (stereo not shown) stands 0.147%; under `COc1ccc(NC(=S)Nc2cc(C)[nH]n2)cc1Cl`, 9.79%.

Turning to `CCOC(=O)C1CCN(C2=C(NS(=O)(=O)c3ccc(Cl)cc3)C(=O)c3ccccc3C2=O)CC1`, the “hERG current change (%, negative = inhibition) at 1uM” value is recorded as -3.02%. Then `COc1ccc(NC(=O)CSc2ccc(C)cc2)cc1`, with 14.5%.

On to `O=C(c1cccc(C(=O)N2CCN(c3ncccn3)CC2)c1)N1CCN(c2ncccn2)CC1`, for which the “hERG current change (%, negative = inhibition) at 1uM” value amounted to 1.42%. Under `COc1ccc(NC(=O)CSCC(=O)N(C)CC(=O)Nc2ccc(Cl)c(C(F)(F)F)c2)cc1` stands -12.7%. Then `Cc1ccc(NC(=O)CN(C)C(=O)c2ccc(Sc3nncn3C)c([N+](=O)[O-])c2)cc1`, with -7.49%.

Consider `COc1ccc(C(CC(=O)O)N2C(=O)CCC2=O)cc1` (stereo not shown), for which the “hERG current change (%, negative = inhibition) at 1uM” value stood at 13.3%. Then `Cc1cc(C)n(CCC(=O)N/N=C/c2ccc(Br)c([N+](=O)[O-])c2)n1`, with 8.07%.

For the molecule `CN1C=CC(=CC=C2C=CC(=O)C=C2)C=C1`, the “hERG current change (%, negative = inhibition) at 1uM” value was 14.3%.

For the molecule `COc1ccc(OC)c(NC(=O)CSc2nc(=O)n(CCN3CCOCC3)c3c2CCC3)c1`, the “hERG current change (%, negative = inhibition) at 1uM” value worked out at 0.447%. Take `Cc1nc(NCc2ccccc2)c2cc[nH]c2n1`: the “hERG current change (%, negative = inhibition) at 1uM” value is 18.9%. Under `CC(C)[N+](C)(C)CC#CC(O)(c1ccccc1)c1ccccc1.[Br-]` stands 12.9%.

Values taken from publication PMC4336329 (PLoS ONE, 2015).
